These results are taken from ChEMBL document CHEMBL1201862, “PubChem BioAssay data set” (2004).

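Growth conditions: 96-well plates. Treatment: test compound, 48 hours, 5 concentrations. Analysis: linear interpolation between bracketing concentrations; unreached endpoints set to highest concentration. At the GI50, growth is halved.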 Active and inactive are the calls of the source. Rule as the data show it: active = GI50 up to about 1.1 µM and inactive = higher.

This test has as its system NCI-H322M. As to the kind of experiment: NCI tumour cell line growth inhibition, 48 h.
On to `CC(C)(C)OC(=O)CCC1NC(=O)[C@@H]2Cc3c([nH]c4ccccc34)C(C3CCCCC3)N2C1=O` (stereo partly specified), for which the GI50 is inactive: 45.6 µM. Consider `COc1ccc(-c2cc3ccccc3oc2=O)cc1OC`, for which the GI50 is inactive: > 100 µM. `C[As+](C)(c1ccc(Br)c([N+](=O)[O-])c1)c1ccc(Br)c([N+](=O)[O-])c1`: the GI50 is inactive: > 100 µM. Consider `NNC(=O)CSc1nc2ccccc2c(=O)n1N`, for which the GI50 was inactive: 81.1 µM. As for `COC(=O)C(C(=O)C(=O)Nc1c(Cl)cc([N+](=O)[O-])cc1Cl)c1nc2cc(C)c(C)cc2nc1O` (stereo unspecified), the GI50 is inactive: > 100 µM. On to `O=c1[nH]nc(Cc2c[nH]c3ccccc23)o1`, for which the GI50 is inactive: > 100 µM.

As to `Cc1cccc2c1Oc1ccccc1C2NC(=O)c1ccc([N+](=O)[O-])cc1` (stereo unspecified), the GI50 is inactive: 57.8 µM.

As for `CCOC(=O)C1(C)C2=CC=C(O2)C(C)(C)C2=CC=C(O2)C(C)(C)C2=CC=C(O2)C(C)(C)C2=CC=C1O2`, the GI50 is inactive: > 100 µM. On to `CCCCCCCCCCCC(=O)OCCOCCOCCOCCOCCOC(=O)CCCCCCCCCCC`, for which the GI50 is inactive: > 100 µM.

With `N/C(=N\Nc1cccc(Cl)c1)c1cccnc1`, the GI50 is inactive: 70.3 µM. With `CCOC(=O)C1C(c2ccc(O)c(OC)c2)c2c(n[nH]c2O)CC1(C)O` (stereo unspecified), the GI50 is inactive: > 100 µM.

For the compound `O=C(O)CC1NC(/C(=C/c2ccccc2)NC(=O)c2ccccc2)OC1=O` (stereo unspecified), the GI50 was inactive: > 100 µM. In the case of `CN(C)NC(=S)Nc1ccccc1Br` it was inactive: > 100 µM.

For the compound `Cc1cc2c(O)c(c1)CN(CC(=O)O)Cc1cc(C)cc(c1O)CN(CC(=O)O)Cc1cc(C)cc(c1O)CN(CC(=O)O)C2`, the GI50 was inactive: > 100 µM. Take `O=C(Oc1cc(=O)c(OC(=O)c2ccccc2)co1)c1ccccc1`: the GI50 is inactive: 64.3 µM.

With `CN(C)CCCN1c2ccccc2CCc2cc([N+](=O)[O-])ccc21`, the GI50 was inactive: 17.1 µM. Consider `CN(C)CC(/C(Cc1ccccc1)=N\NC(=S)NN)c1ccccc1` (stereo unspecified), for which the GI50 was inactive: > 100 µM.

Regarding `N#CC(NNC(=O)Cc1ccccc1)c1ccc(O)cc1` (stereo unspecified), the GI50 is inactive: > 100 µM. On to `C/C=C/C(CC(O)(C(F)(F)F)C(F)(F)F)=N/NC(N)=S`, for which the GI50 is inactive: > 10 µM. The result for `O=C(NCCCN1CCN(CCCNC(=O)c2cccc3ccccc23)CC1)c1cccc2ccccc12` reads inactive: 83.2 µM. In the case of `Cc1nc(Nc2ccc(Cl)cc2)sc1C(=O)NNc1ccc([N+](=O)[O-])cc1[N+](=O)[O-]`, the GI50 is inactive: 18.4 µM. The result for `NC1=C(N2CCCCC2)C(=O)NC2=N/C(=C\c3ccco3)C(=O)N21` reads inactive: > 100 µM; that for `COc1cc2c(NCCCCCCO[N+](=O)[O-])ncnc2c(OC)c1OC`, inactive: 24.5 µM. With `CC(C)N(C(=O)C12C3C4C5C3C1(C#N)C5C42)C(C)C` (stereo unspecified), the GI50 was inactive: > 100 µM. In the case of `Nc1nc2c(nnn2C2C=C(CO)C(O)C2O)c(=O)[nH]1` (stereo unspecified), the GI50 was inactive: > 100 µM. `CC[C@@]1(O)C[C@H](OC2CC(N(C)C)C(O)C(C)O2)c2c(cc3c(c2O)C(=O)c2c(O)ccc(O)c2C3=O)[C@H]1C(=O)OC` (stereo partly specified): the GI50 was active: 0.0424 µM.

`CN(CCNC(=O)c1nn(C)c2c1Cc1ccccc1-2)CCNC(=O)c1nn(C)c2c1Cc1ccccc1-2`: the GI50 was inactive: 16.9 µM. In the case of `CCN(CC)CCSc1nc2cccc([N+](=O)[O-])c2[nH]1`, the GI50 is inactive: > 100 µM. Regarding `CC1CCC2C(C)C(=O)OC2C2(C)C(=O)C=CC12` (stereo unspecified), the GI50 was inactive: > 10 µM.

As to `O=C1/C(=C/c2n[nH]cc2-c2ccc(Cl)cc2)C(=O)N(c2ccccc2)C1c1ccccc1` (stereo unspecified), the GI50 was inactive: 25.6 µM. For the compound `NC(=O)CO/N=C1/C(=C2/C(=O)Nc3ccccc32)Nc2ccccc21`, the GI50 is inactive: 12 µM. Regarding `CN(C)C(=S)/N=c1\ssc(=S)n1C1CCCCC1`, the GI50 is inactive: 82.2 µM.

Turning to `COc1cccc(CCNC(=O)Cc2ccccc2CCO)c1`, the GI50 was inactive: > 100 µM. `CCOC(=O)N1CCN(c2c(C)nc(C)nc2O)CC1`: the GI50 is inactive: > 100 µM. For the compound `CC(=O)NNc1nc(C)c(C(=O)NNC(=O)C(=O)Nc2c(C)cccc2C(C)(C)C)s1`, the GI50 is inactive: > 100 µM. For the compound `CN(O)C(=O)SCC(NC(=O)CCC(N)C(=O)O)C(=O)NCC(=O)O` (stereo unspecified), the GI50 was inactive: 418 µM. As for `O=C1N[C@@H]2c3c(csc3Br)C(=O)[C@@H]2O1`, the GI50 was inactive: 38.1 µM. Take `CSCC(CO)NC(=O)/C=C/c1c(C)[nH]c(=O)[nH]c1=O` (stereo unspecified): the GI50 is inactive: 62.4 µM. Consider `CC1=NN2CCC(=O)N=C2S1`, for which the GI50 was inactive: > 100 µM. On to `CCOC(=O)/C(=N/Nc1ccc(Cl)cc1)N1C(=S)N(C)N=C(C)C=C1S`, for which the GI50 is inactive: 49.9 µM. The result for `CCN(CC)c1ccc2cc(C(N)=S)c(=N)oc2c1` reads inactive: > 100 µM. On to `C[N+](C)(C)CC(=O)N/N=C(/Cc1nc2c3c(ccc2nc1O)C(=O)c1ccccc1C3=O)C(=O)Nc1ccc(Cl)c(Cl)c1`, for which the GI50 is inactive: 49.4 µM. As to `COc1ccc(CSc2nc3ccccc3nc2-c2cccs2)cc1`, the GI50 was inactive: > 100 µM. As for `COc1cccc(NC(=O)C(C)(C)C)c1SSc1c(NC(=O)C(C)(C)C)cccc1OC`, the GI50 was inactive: > 100 µM.

Regarding `CC1(C)O[C@@H]([C@@H](O)[C@H](O)C2SCCCS2)[C@@H](CO)O1`, the GI50 was inactive: > 100 µM. On to `CCCCCCCCOc1ccc(/C=C/C2=[N+](CCO)CCO2)cc1`, for which the GI50 is inactive: 10.6 µM.

Turning to `COC(=O)c1cccc2cccc(C(=O)Nc3ccc(C)cc3C)c12`, the GI50 was inactive: > 100 µM.

Regarding `N#Cc1c(NC(=S)NCc2ccccc2)sc2c1CCN(N1CCc3c(sc(NC(=S)NCc4ccccc4)c3C#N)C1)C2`, the GI50 is inactive: > 100 µM. Turning to `CCOC(=O)CCC(NC(=O)OCc1ccccc1)C(=O)NC(CCC(=O)OCC)C(=O)NC(CCC(=O)OCC)C(=O)NC(CCC(=O)OCC)C(=O)NC(CCC(=O)OCC)C(=O)OCC` (stereo unspecified), the GI50 was inactive: > 100 µM. On to `CN(C)c1ccc(/C=c2/c3ccccc3n3nc4ccccc4c23)cc1`, for which the GI50 is inactive: > 100 µM. Turning to `CNc1cc2oc(=O)cc(C)c2cc1C`, the GI50 was inactive: > 100 µM.

Regarding `COc1ccc(C2=Nc3ccccc3SC(C)C2)cc1OC` (stereo unspecified), the GI50 was inactive: 29.9 µM. For `N#CCCC(C#N)(C#N)CCC#N`, the GI50 is inactive: > 100 µM.

On to `N/C(=N\c1ccc(Cl)cc1)NS(=O)(=O)c1ccc(-c2ncccc2C(F)(F)F)s1`, for which the GI50 is inactive: 13.2 µM. In the case of `CC(=O)OCC1OC(N2C(=O)/C(=C\c3ccc(Cl)cc3)C(N)=Nc3ccccc32)C(OC(C)=O)C(OC(C)=O)C1OC(C)=O` (stereo unspecified) it was inactive: 39.4 µM; in that of `Oc1ccc(Cc2nccc3cc(O)c(O)cc23)cc1O`, inactive: 57.4 µM. In the case of `Cc1ccc2occ/c(=N\Nc3ccccc3)c2c1` it was inactive: 52.5 µM; in that of `O=[N+]([O-])/C(C(Cl)=C(Cl)Cl)=C(\NCc1ccccc1)Sc1ccccc1`, inactive: 38.5 µM; in that of `BrCc1ccc(CBr)c2c1-c1c(CBr)ccc3ccc(CBr)c-2c13`, inactive: > 100 µM. As for `OCC(O)C(O)c1nn(-c2ccccc2)c2nc3cc(Cl)c(Cl)cc3nc12` (stereo unspecified), the GI50 was inactive: 29.2 µM. On to `CN(/N=C(\C(=O)O)c1ccccc1)C1=NCCCCN1`, for which the GI50 is inactive: > 100 µM.

For `N#C/C(=N/Nc1[nH]cnc1C(N)=O)C(=O)Nc1ccccc1`, the GI50 was inactive: > 100 µM. Consider `O=c1c2ccccc2oc2c1ccc1ncccc12`, for which the GI50 was inactive: 15.2 µM.

With `CN(C)c1ccc(/C=N/N=C2\C(=O)Nc3c(Cl)cc(Cl)cc32)cc1`, the GI50 is inactive: > 100 µM. The result for `COc1ccc(COCC[C@H](C)OC2OC(CO)C(O)C(O)C2O)cc1` (stereo partly specified) reads inactive: > 100 µM. On to `c1ccc(COc2ccc(CC3SCCCS3)cc2)cc1`, for which the GI50 is inactive: > 100 µM.

Consider `NCCCCN(CCCN)/[N+]([O-])=N\O`, for which the GI50 was inactive: > 100 µM.

Regarding `Cc1ccc(CCNC(=S)SCC(NC(=O)CCC(N)C(=O)O)C(=O)NCC(=O)O)cc1` (stereo unspecified), the GI50 is inactive: 3.63 µM.

Consider `O=c1[nH]nc2ccccc2c1Cl`, for which the GI50 is inactive: 12.3 µM. With `COc1cc([N+](=O)[O-])c(OC)c2c(Nc3ccc(S(=O)(=O)O)c4cc(S(=O)(=O)O)cc(S(=O)(=O)O)c34)cc(C)nc12`, the GI50 was inactive: > 100 µM. Consider `CC(C)C.C[N+](C)(C)C.OC(c1ccccc1)(C(F)(F)F)C(F)(F)F.OC(c1ccccc1)(C(F)(F)F)C(F)(F)F.[SiH3-]`, for which the GI50 was inactive: 12.3 µM.

As to `CO[C@H]1C[C@H](n2cc(C)c(=O)[nH]c2=O)O[C@@H]1CO`, the GI50 was inactive: > 100 µM.

In the case of `CCOC(=O)c1cnc(-n2[nH]c(C)c(CCO)c2=O)[nH]c1=O`, the GI50 was inactive: > 100 µM. The result for `O=C1Cc2c([nH]c3c(Cl)cccc23)-c2ccccc2N1` reads inactive: > 100 µM. Regarding `c1ccc([P+](Cc2ccc(C[P+](c3ccccc3)(c3ccccc3)c3ccccc3)s2)(c2ccccc2)c2ccccc2)cc1`, the GI50 was inactive: > 100 µM.

As to `CC(=O)O[C@H]1[C@H](O[C@H]2CC[C@]34C[C@]35CC[C@]3(C)[C@@H]([C@@]6(C)CC[C@@H](C(C)(C)O)O6)[C@@H](O)C[C@@]3(C)[C@@H]5C[C@H](O[C@@H]3O[C@H](CO)[C@@H](O)[C@H](O)[C@H]3O)[C@H]4C2(C)C)OC[C@@H](O)[C@@H]1O`, the GI50 is inactive: > 100 µM.

For the compound `Clc1ccc(C(c2ccc(Cl)cc2)N2CCNCC2)cc1`, the GI50 was inactive: 2.74 µM. The result for `Oc1ccc(-c2nc3ccc(F)cc3s2)cc1` reads inactive: 17.4 µM; that for `O=C(/C=C/C=C/c1ccccc1)CCc1ccccc1`, inactive: > 100 µM; that for `N#C/C(=C\c1c[nH]c2ccccc12)C(=O)c1ccc(O)c(O)c1`, inactive: 41.2 µM.

In the case of `O=C(O)Cc1c[nH]c2ccc(F)cc12`, the GI50 was inactive: > 100 µM.
